Measurements as given in the RNAGym collection of RNA variant scans (doi:10.7554/elife.90254).
The source gives no read counts; variants with many changes may rest on few reads.

B1: LINE1-mini (parent)
chain: GGCAGAGCUCAACACAGCGUGGCAAAGUGGCUGUGGCUAGACUGCC

Variants of: B1
Test: self-cleavage, relative activity (ratio to wild type); higher = more cleavage; in vitro, sequencing; the parent is a self-cleaving ribozyme

| Variant | self-cleavage |
| --- | --- |
| AGCAGAGCUUAACACAGCGUGGCAAUGUGGCUGUGGCUAGACUGCC [G1A C10U A26U] | 0.08 |
| GGGAGAGCUCAACCCAGCGUGGCAAAGUGCCUGUGGCUAGACUGUC [C3G A14C G30C C45U] | 0.01 |
| GGCAGAGCUCAACACAGCGUGGCAAAGACGCUGUGUCUAGACUGCC [U28A G29C G36U] | 0.01 |
| GCCAGAGCUCAACACAGCGUGGCAAAAUGGCUGCGGCUAGACUGCC [G2C G27A U34C] | 0.12 |
| GAUAGAGCUCAACACAGCGUUGCAAAGUGGCCGUGGCUAGACUGCC [G2A C3U G21U U32C] | 1.98 |
| GGCAGAUCUCACCACAGGGUGGCAAAGAGGGUGUGGCUAGAGUGCC [G7U A12C C18G U28A C31G C42G] | 0 |
| GGCAGAGCUCAACACAACGUCGCAAAGUGGCUGUGGCAAGACUGCC [G17A G21C U38A] | 0.2 |
| GGCGGAGCUAAACACAGCGUGGCAAAGUGGCUGUUGCUAGACUGCC [A4G C10A G35U] | 0.01 |
| GGCAAAGCUGAACACAGCGUGGCAAAGCGGCUGUGGAUAGACUGGC [G5A C10G U28C C37A C45G] | 0.01 |
| GGCACAGCUAAACACAGCGUGGCAAAGUGGCUGUGGCCGGUAUGCC [G5C C10A U38C A39G A41U C42A] | 0.04 |
| GGCAGAGCUCACCACAGCGUGGGAAAGUGGCUGUGGCUAGACUGCU [A12C C23G C46U] | 0.01 |
| UGCCGAGCACAACACAGCGCGGCAAAGUGGCUGUAGUCAGACCGCC [G1U A4C U9A U20C G35A C37U U38C U43C] | 0.01 |
| GGCACAGCUCAACAAAGCUUGGCAGAGUGGCUGUGGCUAGACUGCC [G5C C15A G19U A25G] | 0.01 |
| GGCGGAGCUCAACACAGCCUGUCAAAGGCGCUGUGGCUAUACUGUC [A4G G19C G22U U28G G29C G40U C45U] | 0.04 |
| GGCUGAACUCGACACAGCGUGGCAAAGUUGCUGUGGCUAGACUGCC [A4U G7A A11G G29U] | 0.03 |
| GGCAGACCUCAACACAGCGGGGCAAAGUGGAUAUGGCUAGACUGAC [G7C U20G C31A G33A C45A] | 0.01 |
| GGCAGAGCUCAACACAGAGUAGCAAAGUGGCUGCGGCUGGACUGCC [C18A G21A U34C A39G] | 0.05 |
| GGCUGAGCAUAACACAGCUUGGCAAAGUGGCUGUGGCUAGACCGCC [A4U U9A C10U G19U U43C] | 0.01 |
| GGCAGAGCUCAACACUGCGUGGCGAAGUGGCUGUGGCUGGACUGCA [A16U A24G A39G C46A] | 0.13 |

| Variant | self-cleavage |
| --- | --- |
| GGCAGAGCUCUACACCGCGUGGCAAAGUGGCUGUGGCUACACUGCC [A11U A16C G40C] | 0.01 |
| GGCAGGGCUCAACACAGCGUGGUAAAGUGGCUGUUGCUCGACUGCC [A6G C23U G35U A39C] | 0.01 |
| GGCAGAGCUCAACACAGGGUGGCAAUUCGGCUGUGGCUAGACUGCC [C18G A26U G27U U28C] | 0.1 |
| GGCAGAGCUCAACACAGCAUGGCAAAGUAGCUGAGGCUGGACUGCC [G19A G29A U34A A39G] | 0.09 |
| GGCAGAGCUCAACACAGCGUGGCAACGUGGCUGUGGCCAGACAGCC [A26C U38C U43A] | 0.2 |
| GGCCGAGCGCAACACAGCGUGGCAAAGUGGGUGUGUCUAUACUGCC [A4C U9G C31G G36U G40U] | 0.15 |
| GGCAGAGAUCAACACAGCGUGGCAAAGUGGCUGUGGCUAGAUUUCC [C8A C42U G44U] | 0.02 |
| GGCAGAGCUCAACACAGCGUGACAAAGUGGAUCUGGCUAGACUGCC [G22A C31A G33C] | 0.13 |
| GGCAGAGCUCUACACAGCGUGCCAAAGUGGCUGUUGCUAGACUGCG [A11U G22C G35U C46G] | 0.01 |
| GGCAGAGCUCAACACAGCGUGGCAAAGGGGUUGUGGCUAGACUGCG [U28G C31U C46G] | 0.07 |
| GGCAGAGCUCAACACAGCCUUGCAACGUGGCUCUGGCUAGACUGCC [G19C G21U A26C G33C] | 0.08 |
| GGCAGAGCUCAAUACAGCGUGGCGAAUUGGCUGUGGCUAGACUGCC [C13U A24G G27U] | 0.1 |
| GGCAGAGCUCAACUGAGCGAGGCAAAGUGGCUGUGGCUAGACUGCC [A14U C15G U20A] | 0.04 |
| GGCCGAGCUCAACACCGUGUGGCAAAUUGGCUGUGGCUAGACUGCC [A4C A16C C18U G27U] | 0.05 |
| GGCAGAGCUCAACACAGCGUGGCAAAGUAGCUGUGGUUAUACUGCC [G29A C37U G40U] | 0.12 |
| GGCAGUGCUGAAUACAUCGUGGCAAAGUGGCUGUGGCUAGACUGCC [A6U C10G C13U G17U] | 0.02 |
| GGCACAGCUCAACACAGCGUGGAAAAGUGGCUCUGGCUAGACUGCC [G5C C23A G33C] | 0.06 |
| GGCAGAGCUCAACAUAGCGUGGUAAAGUGGCUGCGGCUGGACUGCC [C15U C23U U34C A39G] | 0.02 |
| GGCAAAGAUCAACACAGCGUGGCAAAUUGGCUGUGGCUAGACUGGC [G5A C8A G27U C45G] | 0.13 |

| Variant | self-cleavage |
| --- | --- |
| GCCAGUCCUCAACACAGCGUGGUAAUGUGGGUGUGGCUAGCCUGCG [G2C A6U G7C C23U A26U C31G A41C C46G] | 0.03 |
| GGCAGAGGUCGACACAGCGUGGCAAAGUGGCUGUGGCUAGGCUGCC [C8G A11G A41G] | 0.01 |
| GGCAGACCUCAAUACAGUGAGGCAAAGUUGCUGUGGCUAGACUGCC [G7C C13U C18U U20A G29U] | 0.02 |
| GGCAGAGCUCAACACAGCGUGCCCAAGUGGAUGUGCCUAGACUGCC [G22C A24C C31A G36C] | 0.06 |
| UGCAGAGCUCAAAACAGCGUGGCAAAGUGGCUGUGGCUAGACCGCC [G1U C13A U43C] | 0.05 |
| GGCAGAACUCAACACAGCGUUGCAAAGUGGCUGUGGCUAUACUGCC [G7A G21U G40U] | 0.33 |
| GGCACAGCCGAACACAGCGGGGCAACGUGGCGGUGGCUAGACUGCC [G5C U9C C10G U20G A26C U32G] | 0.03 |
| GGGAGACCUCAACACAGCGUGGCAAAGUGGCUGUGGCGUGACUGCC [C3G G7C U38G A39U] | 0.07 |
| UGUAGAGCUCAACACAGCGUGGCAACGUGGCUGUGGCUAGACUGCC [G1U C3U A26C] | 0.21 |
| GGGAGAGCUCAACACAGCGUGGCAAAGUCGCGGUGGCUAGACUGCC [C3G G29C U32G] | 0.1 |
| GGCAGAGCUUAACACAGCGUGGCAAAGUGGCUGUAGCUAUACUGCC [C10U G35A G40U] | 0.02 |
| GGCGGAACUCAACACAGCGUGGGAAAGUGGCUAUGGCUAGACUGCC [A4G G7A C23G G33A] | 0.07 |
| GGCAGACCUCAACAGAGCAUGGCAAAGGGGCUGUGGAUAGACUGCC [G7C C15G G19A U28G C37A] | 0.01 |
| GGCAUAGCUCAACACUUCCUGGCAAAGUGGCUGUGGCUAGACUGCC [G5U A16U G17U G19C] | 0.03 |
| GGCAGAGCUCAACACAGCGUGGCAGAGUGCCUGUGGCUAGAUUGCC [A25G G30C C42U] | 0.02 |
| GGCAGAGCUCAACACAGCGCGUCAAACUGGCUGUGGCUAGACUGCC [U20C G22U G27C] | 0.6 |
| GGCAGAGCUCAAAACAACGUGGCAAAGUGGAUGUGGCUAGACUGCC [C13A G17A C31A] | 0.04 |
| GGCAGAGCUCAAUACAGCGUGGCAAAGUGGCUGCGGCUAGACUGGC [C13U U34C C45G] | 0.02 |
